For 4 molecules, Kd, koff and kon results are on record in patent US20260077041A1 (JIANGSU KANION PHARMACEUTICAL, published 2026).

Test [1] concerns the target T1, TNFα (human, UniProt P01375 part only).
T1 construct: also called hTNF-α
Nature of the test: SPR (Biacore T200), protein A capture, first saturated with IL-17A, then TNFα as analyte.

Test [2] addresses T2, IL-17A (human, UniProt Q16552 24-155).
T2 construct: also called hIL-17A
The test is described as follows: SPR (Biacore T200), protein captured on protein A chip, IL-17A as analyte, multi-cycle. (In SPR one partner is held on a chip, and binding of the other changes the refractive index at the surface.)

The target of test [3] is T2, IL-17A. The test is described as follows: SPR (Biacore T200), protein A capture, first saturated with TNFα, then IL-17A as analyte.
T2 sequence (Q16552 24-155 limits assumed): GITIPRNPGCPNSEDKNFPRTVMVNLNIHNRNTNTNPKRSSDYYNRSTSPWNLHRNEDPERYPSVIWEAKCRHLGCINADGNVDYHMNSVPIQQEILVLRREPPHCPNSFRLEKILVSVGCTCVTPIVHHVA
The target of test [4] is T1, TNFα. The test is described as follows: SPR (Biacore T200), protein captured on protein A chip, TNFα as analyte, multi-cycle.
T1 sequence (P01375 77-233 limits assumed): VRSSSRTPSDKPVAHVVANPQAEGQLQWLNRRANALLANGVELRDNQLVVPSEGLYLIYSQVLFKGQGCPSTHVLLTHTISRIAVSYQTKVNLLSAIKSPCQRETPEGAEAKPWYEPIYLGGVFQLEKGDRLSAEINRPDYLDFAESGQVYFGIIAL

B1: No. 3 protein (Fc fusion)
heavy: QVQLVQSGAEVKKPGSSVKVSCKASGYSFTDYHIHWVRQAPGQGLEWMGVINPMYGTTDYNQRFKGRVTITADESTSTAYMELSSLRSEDTAVYYCARYDYFTGTGVYWGQGTLVTVSSASTKGPSVFPLAPCSRSTSESTAALGCLVKDYFPEPVTVSWNSGALTSGVHTFPAVLQSSGLYSLSSVVTVPSSSLGTKTYTCNVDHKPSNTKVDKRV[human IgG4 Fc with S228P (EU numbers) not written out]GGGGSGGGGSGGGGSGGGGSREKRDSVCPQGKYIHPQNNSICCTKCHKGTYLYNDCPGPGQDTDCRECESGSFTASENHLRHCLSCSKCRKEMGQVEISSCTVDRDTVCGCRKNQYRHYWSENLFQCFNCSLCLNGTVHLSCQEKQNTVCTCHAGFFLRENECVSCSNCKKSLECTKLCL
light: DIVMTQTPLSLSVTPGQPASISCRSSRSLVHSRGNTYLHWYLQKPGQSPQLLIYKVSNRFIGVPDRFSGSGSGTDFTLKISRVEAEDVGVYYCSQSTHLPFTFGQGTKLEIKRTVAAPSVFIFPPSDEQLKSGTASVVCLLNNFYPREAKVQWKVDNALQSGNSQESVTEQDSKDSTYSLSSTLTLSKADYEKHKVYACEVTHQGLSSPVTKSFNRGEC
modifications: IgG-like tetramer of two heavy fusion chains and two light chains; one of each given. Glycosylated.
notes: Odd-numbered construct, contains sTNFRI; expressed in Expi293; also called protein of No. 3
Consider B1, for which the dissociation constant (Kd) in the test with TNFα [1] came out at 0.0182 nM; in the test with IL-17A [2] it was 0.00868 nM; with IL-17A [3], 0.0059 nM; in the test with TNFα [4], 0.0381 nM. The off-rate constant (koff) turned out to be 0.000103 s⁻¹ with TNFα [1], 9.57e-05 s⁻¹ with IL-17A [2], 5.09e-05 s⁻¹ with IL-17A [3] and 0.000123 s⁻¹ with TNFα [4]. Also, the on-rate (kon) with TNFα [1] is 5.7e+06 M⁻¹ s⁻¹; with IL-17A [2], 1.1e+07 M⁻¹ s⁻¹; with IL-17A [3], 8.64e+06 M⁻¹ s⁻¹; with TNFα [4], 3.23e+06 M⁻¹ s⁻¹.

B2: No. 4 protein (Fc fusion)
heavy: QVQLVQSGAEVKKPGSSVKVSCKASGYSFTDYHIHWVRQAPGQGLEWMGVINPMYGTTDYNQRFKGRVTITADESTSTAYMELSSLRSEDTAVYYCARYDYFTGTGVYWGQGTLVTVSSASTKGPSVFPLAPCSRSTSESTAALGCLVKDYFPEPVTVSWNSGALTSGVHTFPAVLQSSGLYSLSSVVTVPSSSLGTKTYTCNVDHKPSNTKVDKRV[human IgG4 Fc with S228P (EU numbers) not written out]GGGGSGGGGSGGGGSGGGGSLPAQVAFTPYAPEPGSTCRLREYYDQTAQMCCSKCSPGQHAKVFCTKTSDTVCDSCEDSTYTQLWNWVPECLSCGSRCSSDQVETQACTREQNRICTCRPGWYCALSKQEGCRLCAPLRKCRPGFGVARPGTETSDVVCKPCAPGTFSNTTSSTDICRPHQICNVVAIPGNASMDAVCTSTSPTRSMAPGAVHLPQPVSTRSQHTQPTPEPSTAPSTSFLLPMGPSPPAEGSTGD
light: DIVMTQTPLSLSVTPGQPASISCRSSRSLVHSRGNTYLHWYLQKPGQSPQLLIYKVSNRFIGVPDRFSGSGSGTDFTLKISRVEAEDVGVYYCSQSTHLPFTFGQGTKLEIKRTVAAPSVFIFPPSDEQLKSGTASVVCLLNNFYPREAKVQWKVDNALQSGNSQESVTEQDSKDSTYSLSSTLTLSKADYEKHKVYACEVTHQGLSSPVTKSFNRGEC
modifications: IgG-like tetramer of two heavy fusion chains and two light chains; one of each given. Glycosylated.
notes: Even-numbered construct, contains sTNFRII; expressed in Expi293; also called protein of No. 4
Turning to B2, the Kd in the test with TNFα [1] stood at 0.0615 nM; with IL-17A [2] it was 0.00717 nM; with IL-17A [3] it was 0.00738 nM; in the test with TNFα [4] it was 0.0535 nM. Moreover, the off-rate (koff) was 0.000592 s⁻¹ in the test with TNFα [1], 7.74e-05 s⁻¹ in the test with IL-17A [2], 6.21e-05 s⁻¹ with IL-17A [3] and 0.000274 s⁻¹ with TNFα [4]. Further, the kon stood at 9.62e+06 M⁻¹ s⁻¹ with TNFα [1], 1.08e+07 M⁻¹ s⁻¹ with IL-17A [2], 8.41e+06 M⁻¹ s⁻¹ in the test with IL-17A [3] and 5.12e+06 M⁻¹ s⁻¹ with TNFα [4].

B3: No. 7 protein (Fc fusion)
chain: QVQLVQSGAEVKKPGSSVKVSCKASGYSFTDYHIHWVRQAPGQGLEWMGVINPMYGTTDYNQRFKGRVTITADESTSTAYMELSSLRSEDTAVYYCARYDYFTGTGVYWGQGTLVTVSSGGGGSGGGGSGGGGSDIVMTQTPLSLSVTPGQPASISCRSSRSLVHSRGNTYLHWYLQKPGQSPQLLIYKVSNRFIGVPDRFSGSGSGTDFTLKISRVEAEDVGVYYCSQSTHLPFTFGQGTKLEIKRT[human IgG4 Fc with S228P (EU numbers) not written out]GGGGSGGGGSGGGGSGGGGSREKRDSVCPQGKYIHPQNNSICCTKCHKGTYLYNDCPGPGQDTDCRECESGSFTASENHLRHCLSCSKCRKEMGQVEISSCTVDRDTVCGCRKNQYRHYWSENLFQCFNCSLCLNGTVHLSCQEKQNTVCTCHAGFFLRENECVSCSNCKKSLECTKLCL
modifications: Disulfide-linked homodimer through the IgG4 hinge; one chain given. Glycosylated.
notes: Odd-numbered construct, contains sTNFRI; expressed in Expi293; used after protein A purification only; also called protein of No. 7
As for B3, the Kd was determined as 0.0776 nM in the test with TNFα [1], 0.00627 nM with IL-17A [2], 0.00821 nM in the test with IL-17A [3] and 0.119 nM in the test with TNFα [4]. The dissociation rate constant (koff) in the test with TNFα [1] was 0.000505 s⁻¹; with IL-17A [2], 6.39e-05 s⁻¹; with IL-17A [3], 4.76e-05 s⁻¹; with TNFα [4], 0.000259 s⁻¹. The on-rate (kon) is 6.52e+06 M⁻¹ s⁻¹ in the test with TNFα [1], 1.02e+07 M⁻¹ s⁻¹ with IL-17A [2], 5.8e+06 M⁻¹ s⁻¹ in the test with IL-17A [3] and 2.18e+06 M⁻¹ s⁻¹ in the test with TNFα [4].

B4: No. 5 protein (Fc fusion)
chain: REKRDSVCPQGKYIHPQNNSICCTKCHKGTYLYNDCPGPGQDTDCRECESGSFTASENHLRHCLSCSKCRKEMGQVEISSCTVDRDTVCGCRKNQYRHYWSENLFQCFNCSLCLNGTVHLSCQEKQNTVCTCHAGFFLRENECVSCSNCKKSLECTKLCL[human IgG4 Fc with S228P (EU numbers) not written out]GGGGSGGGGSGGGGSGGGGSQVQLVQSGAEVKKPGSSVKVSCKASGYSFTDYHIHWVRQAPGQGLEWMGVINPMYGTTDYNQRFKGRVTITADESTSTAYMELSSLRSEDTAVYYCARYDYFTGTGVYWGQGTLVTVSSGGGGSGGGGSGGGGSDIVMTQTPLSLSVTPGQPASISCRSSRSLVHSRGNTYLHWYLQKPGQSPQLLIYKVSNRFIGVPDRFSGSGSGTDFTLKISRVEAEDVGVYYCSQSTHLPFTFGQGTKLEIKRT
notes: also called No. 5 fusion protein; protein of No. 5
On to B4, for which the Kd came out at 0.0171 nM in the test with TNFα [1], 0.00637 nM in the test with IL-17A [2], 0.00716 nM with IL-17A [3] and 0.0357 nM with TNFα [4]. Besides, the koff was determined as 9.49e-05 s⁻¹ with TNFα [1], 3.28e-05 s⁻¹ with IL-17A [2], 2.6e-05 s⁻¹ in the test with IL-17A [3] and 7.82e-05 s⁻¹ with TNFα [4]. The on-rate constant (kon) with TNFα [1] is 5.54e+06 M⁻¹ s⁻¹; in the test with IL-17A [2], 5.16e+06 M⁻¹ s⁻¹; in the test with IL-17A [3], 3.64e+06 M⁻¹ s⁻¹; in the test with TNFα [4], 2.19e+06 M⁻¹ s⁻¹.

By Kd is commonly meant a measure of binding affinity in units of concentration. Higher therefore signals weaker binding. In general, koff refers to the rate constant with which the complex falls apart. By kon is commonly meant the second-order rate constant of association. A low value points to slow association.
